These results are taken from PubChem BioAssay AID1956 (SRMLSC, 2009).

Several values for one entry are separate records, joined by “and”; a condition that tells them apart may be missing. Equal values may be shown once. The list shows a part of the results. Further columns of the screen follow, without active or inactive calls.

The nature of the assay: enhancers of HSV replication in host cells, fold increase, host cell viability (AID 1956). Also: tested in PC3 cells. The conditions noted are these: HSV replication augmentation in cells; fold increase: measured here: primary screen fold increase 10 uM, at 10 µM, stronger effect = higher value; viability: measured here: host cell viability series, at 25 µM, stronger effect = lower value.
As for `CC(=O)Nc1ccc(OC(=O)c2ccccc2N)cc1`, the fold increase was determined as 1.37 and the viability was 96.2%.
As to `CN(C)/C=c1\sc2c(C#N)cc(C(=O)c3ccc(Br)cc3)n2c1=O`, the fold increase was 1.58 and the viability is 98.6%.
For `CC1(C)OC(c2ccccc2)=C/C(=C/C=C2C(=O)NC(=S)NC2=O)O1`, the fold increase came out at 5.27.
On to `O=C1NC(=O)N(CCc2ccc(F)cc2)C(=O)/C1=C/c1ccco1`, for which the fold increase is 1.6 and the viability came out at 91.2%.
With `Cc1cc(C=C2C(=O)N(C)C(=S)N(C)C2=O)c(C)n1C1CCCCC1`, the fold increase was 2.82 and the viability was 97.9%.
The like results for `O=c1[nH]c(=O)n(CCC2=CCCCC2)c(O)c1/C=N/Nc1cccc2ccccc12` were, in that order, 1.78 and 92.8%.
The like results for `CN1/C(=C\C=C2C(=O)NC(=S)NC2=O)C(C)(C)c2ccccc21` were, in that order, 8.73 and 92.7%.
As for `O=C1NC(=O)N(Cc2ccc(F)cc2)C(=O)/C1=C\c1ccc([N+](=O)[O-])s1`, the fold increase was determined as 1.71 and the viability is 90.8%.
Turning to `N=C1c2ccccc2CN1NC(=O)c1ccc(Cl)cc1`, the fold increase amounted to 1.44 and the viability came to 100%.
Turning to `CCC1(C)OC(c2ccccc2)=C/C(=C/C=C2C(=O)NC(=O)NC2=O)O1` (stereo not given), the fold increase amounted to 4.22 and the viability was determined as 93.2%.
The corresponding values for `COC(=O)C1C=C2c3cccc4[nH]cc(c34)CC2N(C)C1` (stereo not given) are 1.89 and 99.6%.
The like results for `CC(C(=O)c1c[nH]c2ccccc12)N1CCc2ccccc2C1` (stereo not given) were, in that order, 1.13 and 75.4%.
In the case of `CCOc1ccc(N2C(=O)NC(=O)/C(=C\c3ccc(N4CCCCC4)o3)C2=O)cc1`, the fold increase was found to be 3.09 and the viability came to 92.6%.
The like results for `O=C1NC(=O)N(c2ccccc2)C(=O)/C1=C/c1ccoc1` were, in that order, 1.9 and 101%.
`COCC(C)OC(=O)c1c(N)n(Cc2ccco2)c2nc3ccccc3nc12` (stereo not given): the fold increase is 1.64 and the viability amounted to 97.3%.
Regarding `O=C1NC(=O)N(c2ccccc2F)C(=O)/C1=C/c1ccc(Sc2nc3ccccc3[nH]2)o1`, the fold increase turned out to be 2.67 and the viability was determined as 97.9%.
The like results for `O=C1NC(=O)N(c2ccc3c(c2)OCO3)C(=O)/C1=C/c1ccc(N2CCCC2)o1` were, in that order, 2.14 and 100%.
Take `N#Cc1c(/N=C/C2C(=O)NC(=S)NC2=O)sc2c1CCCC2`: the fold increase came out at 1.36.
The same measure, in the same setting: to `Cc1cc(C=C2C(=O)N(C)C(=S)N(C)C2=O)c(C)n1-c1cccnc1` belongs 1.32.
Consider `O=C1OC(c2ccc([N+](=O)[O-])cc2)=N/C1=C/N1CC2CC(C1)c1cccc(=O)n1C2` (stereo not given), for which the fold increase was determined as 1.42 and the viability is 98.1%.
The corresponding values for `C/C(=N\Nc1cccc2ccccc12)c1c(O)n(Cc2ccccc2)c(=O)[nH]c1=O` are 1.45 and 90.8%.
On to `Cc1ccc(/C=C2\C(=O)NC(=S)N(c3ccc(F)cc3)C2=O)s1`, for which the fold increase was 1.38.
For `COc1ccc2c(c1)CC1(CN2C)C(=O)NC(=O)N(c2ccc(F)cc2)C1=O` (stereo not given), the fold increase came out at 1.49 and the viability came to 93.2%.
The like results for `CC(=NCCCn1ccnc1)c1c(O)n(Cc2ccccc2)c(=O)[nH]c1=O` were, in that order, 1.37 and 94.9%.
The like results for `O=c1[nH]c(=O)n(C2CCCCC2)c(O)c1/C=C/C=Nc1ccccc1` were, in that order, 4.29 and 94.5%.
Regarding `COCCCNC(=O)c1c(N)n(Cc2ccco2)c2nc3ccccc3nc12`, the fold increase is 1.5 and the viability is 80.2%.
Turning to `COCCNC(=O)c1c(N)n(Cc2ccco2)c2nc3ccccc3nc12`, the fold increase stood at 1.36 and the viability came out at 93.6%.
With `O=c1[nH]c(=S)n(C2CC2)c(O)c1/C=N/Nc1cccc2ccccc12`, the fold increase was determined as 1.4 and the viability came out at 95.6%.
The like results for `COc1ccccc1N1C(=O)NC(=O)/C(=C/c2ccc3c4c(cccc24)CC3)C1=O` were, in that order, 1.37 and 104%.
The corresponding values for `O=C1NC(=O)N(Cc2ccccc2)C(=O)/C1=C/C=C/c1ccco1` are 1.74 and 61.2%.
The corresponding values for `CCN(CC)c1ccc(N=Cc2c(O)n(-c3ccc(Cl)cc3)c(=O)[nH]c2=O)cc1` are 1.38 and 104%.
Take `Cc1cc(C)cc(N2C(=O)NC(=O)/C(=C\C=C\c3ccco3)C2=O)c1`: the fold increase was 1.78 and the viability is 76.6%.
Take `CCOC(=O)c1c(/N=C/C2C(=O)NC(=S)NC2=O)sc2c1CCC2`: the fold increase was found to be 1.34.
For `COc1ccc(/C=C2/C(=O)N(Cc3ccco3)C(=O)N(C(C)C)C2=O)cc1`, the fold increase was 1.39 and the viability stood at 99.6%.
The like results for `O=C1NC(=O)N(Cc2ccccc2)C(=O)/C1=C\N1CCCc2ccccc21` were, in that order, 1.4 and 93.5%.
Consider `OC(c1ccc(F)cc1)C(c1ccccc1)N1CCOCC1` (stereo not given), for which the fold increase was found to be 1.13 and the viability is 103%.
For `CCN(CC)c1ccc(N=Cc2c(O)n(Cc3ccccc3)c(=O)[nH]c2=O)cc1`, the fold increase is 1.54 and 1.6; the viability was 99.6% and 75.1%.
Regarding `CC(C)n1c(=O)c(C=Nc2ccc(S(N)(=O)=O)cc2)c(O)n(Cc2ccco2)c1=O`, the fold increase stood at 1.45 and the viability worked out at 98.6%.
The like results for `Cc1ccc(N2C(=O)NC(=O)/C(=C\c3ccoc3)C2=O)cc1` were, in that order, 2.71 and 95.1%.
For the compound `C=CCN1C(=O)/C(=C/c2ccc(N3CCOCC3)o2)C(=O)NC1=S`, the fold increase was 1.56.
For `CCN1C(=O)C(=Cc2ccc(N3CCOCC3)o2)C(=O)N(CC)C1=S`, the fold increase came to 2.68 and the viability came out at 96.2%.
The like results for `CCOC(=O)c1c(N)n(CCN2CCOCC2)c2nc3ccccc3nc12` were, in that order, 1.41 and 103%.
The corresponding values for `CN1C(=O)/C(=C/c2ccc(N3CCCCCC3)o2)C(=O)NC1=S` are 2.48 and 91%.
The corresponding values for `COC(=O)CC(=O)c1ccc2c(c1)OCO2` are 1.34 and 103%.
Turning to `Cc1ccc(N2C(=O)NC(=O)/C(=C/C=C/c3ccco3)C2=O)cc1`, the fold increase is 1.85.
For `CCCC(=O)NC(Oc1ccc(OC)cc1)C(Cl)(Cl)Cl` (stereo not given), the fold increase worked out at 1.33 and the viability was 93.5%.
On to `CCc1ccc(N2C(=O)NC(=O)/C(=C\C=C\c3ccco3)C2=O)cc1`, for which the fold increase was determined as 2.36.
For `Nc1ccc2nonc2c1[N+](=O)[O-]`, the fold increase worked out at 3.22 and the viability came to 103%.
`C=CCN1C(=O)NC(=O)/C(=C/c2ccoc2)C1=O`: the fold increase is 1.37 and the viability came out at 94.1%.
The like results for `C=CCn1c(=O)c(C=Nc2cccnc2Cl)c(O)n(CCCC)c1=O` were, in that order, 1.43 and 106%.
On to `CC(C)c1ccc(N2C(=O)NC(=O)/C(=C/c3cnc(-c4ccccc4)nc3)C2=O)cc1`, for which the fold increase came out at 3.53.
Regarding `COc1ccc(CN2C(=O)CC(=O)NC2=S)cc1`, the fold increase came out at 1.45 and the viability came out at 102%.
`Cn1c(=O)oc2cc(S(=O)(=O)N3CCC(C(=O)Nc4ccc(OC(F)(F)F)cc4)CC3)ccc21`: the fold increase was determined as 1.53 and the viability worked out at 96.6%.
The corresponding values for `CN1C(=O)C(=Cc2sc(=O)n(-c3ccccc3)c2N(C)C)C(=O)N(C)C1=O` are 1.38 and 82.2%.
Turning to `CN1C(=O)C(=Cc2ccc(N3CCCCCC3)o2)C(=O)N(C)C1=S`, the fold increase was determined as 9.8 and the viability came out at 84.5%.
Regarding `Cc1ccc(-n2c(O)c(/C=C/C=Nc3ccccc3)c(=O)[nH]c2=O)cc1`, the fold increase is 2.75.
As for `O=C1CC(N2CC=C(c3ccccc3)CC2)C(=O)N1c1ccc(F)cc1` (stereo not given), the fold increase came to 1.38 and the viability was 93.8%.
As for `CC(C)c1ccc(N2C(=O)NC(=O)/C(=C\C=C\c3ccco3)C2=O)cc1`, the fold increase was 1.5.
